Laboratory results from patent US12459974B2, “Bicyclic peptide ligands specific for Nectin-4” (priority 2018, dated 2025).
At least one peptide structure holds a part that was inferred or is arguable (an end, a ring closure or a residue). *1 amine or outer side, *2 acyl side, *3 side chain or, on linkers, in order; H or OH if unused. Where a SMILES comes first, the peptide text is derived from it. Bridges are numbered along the chain shown (N, C = ends). [ ]: non-standard residue; d: D form. TATA = O=C(CC[*:1])N1CN(C(=O)CC[*:2])CN(C(=O)CC[*:3])C1; 1Nal = N[C@@H](Cc1cccc2ccccc12)C(=O)O; Hyp = O=C(O)[C@@H]1C[C@@H](O)CN1; hArg = N=C(N)NCCCC[C@H](N)C(=O)O

What follows are compounds tested against T1, human Nectin-4 (Homo sapiens, UniProt Q96NY8) (assay: Nectin-4 competition binding assay (fluorescence polarisation)). Conditions: competition with fluorescent peptide SEQ ID NO: 217.
T1 sequence (Q96NY8 32-510): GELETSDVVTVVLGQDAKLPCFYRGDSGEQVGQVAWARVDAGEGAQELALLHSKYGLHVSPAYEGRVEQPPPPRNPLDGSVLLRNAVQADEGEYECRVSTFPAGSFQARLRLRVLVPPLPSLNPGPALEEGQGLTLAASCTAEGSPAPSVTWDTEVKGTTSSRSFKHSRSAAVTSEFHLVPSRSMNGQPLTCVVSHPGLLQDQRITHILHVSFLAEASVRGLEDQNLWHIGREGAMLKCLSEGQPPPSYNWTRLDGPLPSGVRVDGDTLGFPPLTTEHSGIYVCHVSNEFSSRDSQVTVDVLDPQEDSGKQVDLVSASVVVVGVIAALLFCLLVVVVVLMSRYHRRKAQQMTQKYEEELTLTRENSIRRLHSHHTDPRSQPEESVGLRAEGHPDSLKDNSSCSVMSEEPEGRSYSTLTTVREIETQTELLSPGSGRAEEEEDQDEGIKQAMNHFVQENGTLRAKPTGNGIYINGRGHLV
Procedure, shortened: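 Ki derived by cubic-equation fit of mP data, with tracer peptide concentration, its Kd and Nectin-4 level as fixed inputs. Competition set up by adding 2-fold peptide dilutions (≤5% DMSO), then Nectin-4, then fluorescent peptide; polarisation measured as for direct binding.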

`CC[C@H](C)[C@@H]1NC(=O)[C@@H]2CCCN2C(=O)[C@H]([C@@H](C)O)NC(=O)[C@H](CO)NC(=O)[C@H](Cc2c[nH]c3ccccc23)NC(=O)[C@H](CC(N)=O)NC(=O)[C@H](CCCCNC(=N)N)NC(=O)[C@H](CCSC)NC(=O)[C@@H]2CSCCC(=O)N3CN(CN(C3)C(=O)CCSC[C@H](NC(C)=O)C(=O)NC(C)(C)C(=O)N[C@@H](Cc3ccccc3)C(=O)N[C@H](CC(=O)O)C(=O)N2)C(=O)CCSC[C@@H](C(N)=O)NC(=O)[C@H](Cc2c[nH]c3ccccc23)NC1=O` [BCY8041, Ac-(SEQ ID NO: 163)] and `CC[C@H](C)[C@@H]1NC(=O)[C@@H]2CCCN2C(=O)[C@H]([C@@H](C)O)NC(=O)[C@H](CO)NC(=O)[C@H](Cc2c[nH]c3ccccc23)NC(=O)[C@H](CC(N)=O)NC(=O)[C@H](CCCCNC(=N)N)N(C)C(=O)[C@H](CCSC)NC(=O)[C@@H]2CSCCC(=O)N3CN(CN(C3)C(=O)CCSC[C@H](NC(C)=O)C(=O)N3CCC[C@H]3C(=O)N[C@@H](Cc3ccccc3)C(=O)N[C@H](CC(=O)O)C(=O)N2)C(=O)CCSC[C@@H](C(N)=O)NC(=O)[C@H](Cc2c[nH]c3ccccc23)NC1=O` [BCY8153, Ac-(SEQ ID NO: 173)] are within 1.5-fold of each other in Ki: 0.0391 µM for the first, 0.035 µM for the second.

Going from `CSCC[C@@H]1NC(=O)[C@@H]2CSCCC(=O)N3CN(CN(C3)C(=O)CCSC[C@H](NC(C)=O)C(=O)N3CCC[C@H]3C(=O)N[C@@H](Cc3ccccc3)C(=O)N[C@H](CC(=O)O)C(=O)N2)C(=O)CCSC[C@@H](C(N)=O)NC(=O)[C@H](Cc2c[nH]c3ccccc23)NC(=O)[C@H](CCCCN)NC(=O)[C@@H]2CCCN2C(=O)[C@H]([C@@H](C)O)NC(=O)[C@H](CO)NC(=O)[C@H](Cc2c[nH]c3ccccc23)NC(=O)[C@H](CC(N)=O)NC(=O)[C@H](CCCCNC(=N)N)NC1=O` [BCY8085, Ac-(SEQ ID NO: 166)] to `CC[C@H](C)[C@@H]1NC(=O)[C@@H]2CCCN2C(=O)[C@H]([C@@H](C)O)N(C)C(=O)[C@H](CO)NC(=O)[C@H](Cc2c[nH]c3ccccc23)NC(=O)[C@H](CC(N)=O)NC(=O)[C@H](CCCCNC(=N)N)NC(=O)[C@H](CCSC)NC(=O)[C@@H]2CSCCC(=O)N3CN(CN(C3)C(=O)CCSC[C@H](NC(C)=O)C(=O)N3CCC[C@H]3C(=O)N[C@@H](Cc3ccccc3)C(=O)N[C@H](CC(=O)O)C(=O)N2)C(=O)CCSC[C@@H](C(N)=O)NC(=O)[C@H](Cc2c[nH]c3ccccc23)NC1=O` [BCY8157, Ac-(SEQ ID NO: 175)], the Ki falls from 0.0151 µM to 0.005 µM (3-fold). The second binds more tightly here.

Compared with `CSCC[C@@H]1NC(=O)[C@@H]2CSCCC(=O)N3CN(CN(C3)C(=O)CCSC[C@H](NC(C)=O)C(=O)N3CCC[C@H]3C(=O)N[C@@H](Cc3cccc4ccccc34)C(=O)N[C@H](CC(=O)O)C(=O)N2)C(=O)CCSC[C@@H](C(N)=O)NC(=O)[C@H](Cc2c[nH]c3ccccc23)NC(=O)[C@@H]2C[C@@H](O)CN2C(=O)[C@@H]2CCCN2C(=O)[C@H]([C@@H](C)O)NC(=O)[C@H](CC(=O)O)NC(=O)[C@H](Cc2c[nH]c3ccccc23)NC(=O)[C@H](CC(=O)O)NC(=O)[C@H](CCCCNC(=N)N)NC1=O` [BCY8174, Ac-(SEQ ID NO: 180)] (Ac-CP[1Nal][dD]CM[hArg]DWDTP[Hyp]WC-NH2; linker 1-5-15 via TATA; C-terminus assumed), `CSCC[C@@H]1NC(=O)[C@@H]2CSCCC(=O)N3CN(CN(C3)C(=O)CCSC[C@H](NC(C)=O)C(=O)N3CCC[C@H]3C(=O)N[C@@H](Cc3cccc4ccccc34)C(=O)N[C@H](CC(=O)O)C(=O)N2)C(=O)CCSC[C@@H](C(N)=O)NC(=O)[C@H](Cc2c[nH]c3ccccc23)NC(=O)[C@@H]2C[C@@H](O)CN2C(=O)[C@@H]2CCCN2C(=O)[C@H]([C@@H](C)O)NC(=O)[C@@H](CO)NC(=O)[C@H](Cc2c[nH]c3ccccc23)NC(=O)[C@H](CC(=O)O)NC(=O)[C@H](CCCCNC(=N)N)NC1=O` [BCY8178, Ac-(SEQ ID NO: 184)] is 6.7-fold higher in Ki: 0.0123 µM for the first, 0.083 µM for the second.

Going from `CSCC[C@@H]1NC(=O)[C@@H]2CSCCC(=O)N3CN(CN(C3)C(=O)CCSC[C@H](NC(C)=O)C(=O)N3CCC[C@H]3C(=O)N[C@@H](Cc3ccc4ccccc4c3)C(=O)N[C@H](CC(=O)O)C(=O)N2)C(=O)CCSC[C@@H](C(N)=O)NC(=O)[C@H](Cc2c[nH]c3ccccc23)NC(=O)[C@@H]2C[C@@H](O)CN2C(=O)[C@@H]2CCCN2C(=O)[C@H]([C@@H](C)O)NC(=O)[C@H](CO)NC(=O)[C@H](Cc2c[nH]c3ccccc23)NC(=O)[C@H](CC(=O)O)NC(=O)[C@H](CCCCNC(=N)N)NC1=O` [BCY8175, Ac-(SEQ ID NO: 181)] to `CSCC[C@@H]1NC(=O)[C@@H]2CSCCC(=O)N3CN(CN(C3)C(=O)CCSC[C@H](NC(C)=O)C(=O)N3CCC[C@H]3C(=O)N[C@@H](Cc3ccc4ccccc4c3)C(=O)N[C@H](CCCNC(=N)N)C(=O)N2)C(=O)CCSC[C@@H](C(N)=O)NC(=O)[C@H](Cc2c[nH]c3ccccc23)NC(=O)[C@@H]2C[C@@H](O)CN2C(=O)[C@@H]2CCCN2C(=O)[C@H]([C@@H](C)O)NC(=O)[C@H](CO)NC(=O)[C@H](Cc2c[nH]c3ccccc23)NC(=O)[C@H](CC(=O)O)NC(=O)[C@H](CCCCNC(=N)N)NC1=O` [BCY8186, Ac-(SEQ ID NO: 191)], the Ki rises from 0.0035 µM to 0.006 µM (1.7-fold).

Compared with `CSCC[C@@H]1NC(=O)[C@@H]2CSCCC(=O)N3CN(CN(C3)C(=O)CCSC[C@H](NC(C)=O)C(=O)N3CCC[C@H]3C(=O)N[C@@H](Cc3cccc4ccccc34)C(=O)N[C@H](CC(=O)O)C(=O)N2)C(=O)CCSC[C@@H](C(N)=O)NC(=O)[C@H](Cc2c[nH]c3ccccc23)NC(=O)[C@@H]2C[C@@H](O)CN2C(=O)[C@@H]2CCCN2C(=O)[C@H]([C@@H](C)O)NC(=O)[C@H]([C@@H](C)O)NC(=O)[C@H](Cc2c[nH]c3ccccc23)NC(=O)[C@H](CC(=O)O)NC(=O)[C@H](CCCCNC(=N)N)NC1=O` [BCY8176, Ac-(SEQ ID NO: 182)] (Ac-CP[1Nal][dD]CM[hArg]DWTTP[Hyp]WC-NH2; linker 1-5-15 via TATA; C-terminus assumed), `CSCC[C@@H]1NC(=O)[C@@H]2CSCCC(=O)N3CN(CN(C3)C(=O)CCSC[C@H](NC(C)=O)C(=O)N3CCC[C@H]3C(=O)N[C@@H](Cc3cccc4ccccc34)C(=O)N[C@H](CC(=O)O)C(=O)N2)C(=O)CCSC[C@@H](C(N)=O)NC(=O)[C@H](Cc2c[nH]c3ccccc23)NC(=O)[C@@H]2C[C@@H](O)CN2C(=O)[C@@H]2CCCN2C(=O)[C@H]([C@@H](C)O)NC(=O)[C@H](CCO)NC(=O)[C@H](Cc2c[nH]c3ccccc23)NC(=O)[C@H](CC(=O)O)NC(=O)[C@H](CCCCNC(=N)N)NC1=O` [BCY8177, Ac-(SEQ ID NO: 183)] is 5-fold higher in Ki: 0.0035 µM for the first, 0.0175 µM for the second. The first binds more tightly here.

First: CSCC[C@@H]1NC(=O)[C@@H]2CSCCC(=O)N3CN(CN(C3)C(=O)CCSC[C@H](NC(C)=O)C(=O)N3CCC[C@H]3C(=O)N[C@@H](Cc3cccc4ccccc34)C(=O)N[C@H](CC(=O)O)C(=O)N2)C(=O)CCSC[C@@H](C(N)=O)NC(=O)[C@H](Cc2c[nH]c3ccccc23)NC(=O)[C@@H]2C[C@@H](O)CN2C(=O)[C@@H]2CCCN2C(=O)[C@H](CO)NC(=O)[C@H](CO)NC(=O)[C@H](Cc2c[nH]c3ccccc23)NC(=O)[C@H](CC(=O)O)NC(=O)[C@H](CCCCNC(=N)N)NC1=O [BCY8180, Ac-(SEQ ID NO: 185)] (Ac-CP[1Nal][dD]CM[hArg]DWSSP[Hyp]WC-NH2; linker 1-5-15 via TATA)
Second: CSCC[C@@H]1NC(=O)[C@@H]2CSCCC(=O)N3CN(CN(C3)C(=O)CCSC[C@H](NC(C)=O)C(=O)N3CCC[C@H]3C(=O)N[C@@H](Cc3cccc4ccccc34)C(=O)N[C@H](CCCNC(=N)N)C(=O)N2)C(=O)CCSC[C@@H](C(N)=O)NC(=O)[C@H](Cc2c[nH]c3ccccc23)NC(=O)[C@@H]2C[C@@H](O)CN2C(=O)[C@@H]2CCCN2C(=O)[C@H]([C@@H](C)O)NC(=O)[C@H](CC(=O)O)NC(=O)[C@H](Cc2c[nH]c3ccccc23)NC(=O)[C@H](CC(=O)O)NC(=O)[C@H](CCCCNC(=N)N)NC1=O [BCY8185, Ac-(SEQ ID NO: 190)] (Ac-CP[1Nal][dR]CM[hArg]DWDTP[Hyp]WC-NH2; linker 1-5-15 via TATA; C-terminus assumed)
The Ki of the first is 8.7-fold lower: 0.003 µM for the first, 0.0261 µM for the second. The first binds more tightly here.

`CSCC[C@@H]1NC(=O)[C@@H]2CSCCC(=O)N3CN(CN(C3)C(=O)CCSC[C@H](NC(C)=O)C(=O)N3CCC[C@H]3C(=O)N[C@@H](Cc3cccc4ccccc34)C(=O)N[C@H](CCCNC(=N)N)C(=O)N2)C(=O)CCSC[C@@H](C(N)=O)NC(=O)[C@H](Cc2c[nH]c3ccccc23)NC(=O)[C@@H]2C[C@@H](O)CN2C(=O)[C@@H]2CCCN2C(=O)[C@H]([C@@H](C)O)NC(=O)[C@H]([C@@H](C)O)NC(=O)[C@H](Cc2c[nH]c3ccccc23)NC(=O)[C@H](CC(=O)O)NC(=O)[C@H](CCCCNC(=N)N)NC1=O` [BCY8187, Ac-(SEQ ID NO: 192)] (Ac-CP[1Nal][dR]CM[hArg]DWTTP[Hyp]WC-NH2; linker 1-5-15 via TATA; C-terminus assumed) showed a Ki of 0.005 µM.
